The other results are listed elsewhere or left out.

The target of the test is T1, MBP-FoxP1dN (Mus musculus, UniProt P58462 326-579).
T1 sequence: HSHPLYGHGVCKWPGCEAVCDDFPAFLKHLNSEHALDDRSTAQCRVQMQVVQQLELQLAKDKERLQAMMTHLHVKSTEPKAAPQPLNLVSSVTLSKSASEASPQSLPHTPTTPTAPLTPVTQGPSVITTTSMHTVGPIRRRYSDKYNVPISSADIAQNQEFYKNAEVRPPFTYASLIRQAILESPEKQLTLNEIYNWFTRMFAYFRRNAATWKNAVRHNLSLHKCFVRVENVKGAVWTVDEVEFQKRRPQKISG
In words: PD-seq (MBP pull-down with sequencing); 20 mM Tris-HCl pH 7.5, 100 mM NaCl, 1.5 mM MgCl2, 0.4 uM protein, 0.1 uM dsDNA library, 30 min, room temperature, amylose pull-down; high values mean tight binding. The note with it: protein: recombinant; tags: His6-MBP; chain copies: 2; dsDNA, one strand shown. In short, it runs like this: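 Amylose resin was used to capture complexes formed during 30 min at room temperature in Tris pH 7.5 buffer with NaCl and MgCl2 between 0.4 µM His6-MBP-tagged mouse FoxP3 or FoxP1 fragment lacking the N-terminus, expressed in E. coli, and 0.1 µM Klenow-filled double-stranded degenerate DNA library. After three washes, the DNA was released with proteinase K, barcoded by PCR and sequenced on Illumina. Binding is pooled-replicate reads-per-million enrichment, pull-down over input.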
With “GATGATTGTTCTCCCAGCTGATGAATTTCAACCCTCGAGTAAACAAATTTTCCTAATCTTTCTGTTCAAGCGCCATCTAC”, the binding signal was 0.794 RPM ratio (pull-down/input).

With “GATGATTGTTCTCCCAGCTGATGAATTTGATCACTCGAGTAAACAAATTTTCCTAATCTTTCTGTTCAAGCGCCATCTAC”, the binding signal is 1.02 RPM ratio (pull-down/input).

For “GATGATTGTTCTCCCAGCTGATGAATTAGAGGTGTCGAGTAAACAAATTTTCCTAATCTTTCTGTTCAAGCGCCATCTAC”, the binding signal is 0.96 RPM ratio (pull-down/input).

Turning to “GATGATTGTTCTCCCAGCTGATGAATTTTGACTTTCGAGTAAACAAATTTTCCTAATCTTTCTGTTCAAGCGCCATCTAC”, the binding signal is 0.911 RPM ratio (pull-down/input).

For the sequence “GATGATTGTTCTCCCAGCTGATGAATTTGAATAATCGAGTAAACAAATTTTCCTAATCTTTCTGTTCAAGCGCCATCTAC”, the binding signal was 1.18 RPM ratio (pull-down/input).

With “GATGATTGTTCTCCCAGCTGATGAATTAATAGCGTCGAGTAAACAAATTTTCCTAATCTTTCTGTTCAAGCGCCATCTAC”, the binding signal is 1.06 RPM ratio (pull-down/input).

Turning to “GATGATTGTTCTCCCAGCTGATGAATTAGAACCGTCGAGTAAACAAATTTTCCTAATCTTTCTGTTCAAGCGCCATCTAC”, the binding signal was 0.868 RPM ratio (pull-down/input).

For the sequence “GATGATTGTTCTCCCAGCTGATGAATTTTCTACCTCGAGTAAACAAATTTTCCTAATCTTTCTGTTCAAGCGCCATCTAC”, the binding signal is 0.89 RPM ratio (pull-down/input).

For the sequence “GATGATTGTTCTCCCAGCTGATGAATTTATGTATTCGAGTAAACAAATTTTCCTAATCTTTCTGTTCAAGCGCCATCTAC”, the binding signal is 1.68 RPM ratio (pull-down/input).

Turning to “GATGATTGTTCTCCCAGCTGATGAATTTTTAGTTTCGAGTAAACAAATTTTCCTAATCTTTCTGTTCAAGCGCCATCTAC”, the binding signal was 1.05 RPM ratio (pull-down/input).

“GATGATTGTTCTCCCAGCTGATGAATTCGACCTCTCGAGTAAACAAATTTTCCTAATCTTTCTGTTCAAGCGCCATCTAC”: the binding signal was 0.698 RPM ratio (pull-down/input).

On to “GATGATTGTTCTCCCAGCTGATGAATTTTGTCCGTCGAGTAAACAAATTTTCCTAATCTTTCTGTTCAAGCGCCATCTAC”, for which the binding signal is 0.953 RPM ratio (pull-down/input).

On to “GATGATTGTTCTCCCAGCTGATGAATTTGAGTAGTCGAGTAAACAAATTTTCCTAATCTTTCTGTTCAAGCGCCATCTAC”, for which the binding signal is 0.875 RPM ratio (pull-down/input).

Turning to “GATGATTGTTCTCCCAGCTGATGAATTATAGTGCTCGAGTAAACAAATTTTCCTAATCTTTCTGTTCAAGCGCCATCTAC”, the binding signal is 0.938 RPM ratio (pull-down/input).

Turning to “GATGATTGTTCTCCCAGCTGATGAATTCAGGAACTCGAGTAAACAAATTTTCCTAATCTTTCTGTTCAAGCGCCATCTAC”, the binding signal is 0.855 RPM ratio (pull-down/input).

For “GATGATTGTTCTCCCAGCTGATGAATTCATATCATCGAGTAAACAAATTTTCCTAATCTTTCTGTTCAAGCGCCATCTAC”, the binding signal was 1.11 RPM ratio (pull-down/input).

In the case of “GATGATTGTTCTCCCAGCTGATGAATTCCAAAGGTCGAGTAAACAAATTTTCCTAATCTTTCTGTTCAAGCGCCATCTAC”, the binding signal is 0.761 RPM ratio (pull-down/input).

On to “GATGATTGTTCTCCCAGCTGATGAATTCATGATGTCGAGTAAACAAATTTTCCTAATCTTTCTGTTCAAGCGCCATCTAC”, for which the binding signal is 1.21 RPM ratio (pull-down/input).

For “GATGATTGTTCTCCCAGCTGATGAATTCTGGGTCTCGAGTAAACAAATTTTCCTAATCTTTCTGTTCAAGCGCCATCTAC”, the binding signal is 0.744 RPM ratio (pull-down/input).

Take “GATGATTGTTCTCCCAGCTGATGAATTTCACTAATCGAGTAAACAAATTTTCCTAATCTTTCTGTTCAAGCGCCATCTAC”: the binding signal was 0.997 RPM ratio (pull-down/input).

On to “GATGATTGTTCTCCCAGCTGATGAATTGATCCCATCGAGTAAACAAATTTTCCTAATCTTTCTGTTCAAGCGCCATCTAC”, for which the binding signal was 1.02 RPM ratio (pull-down/input).

In the case of “GATGATTGTTCTCCCAGCTGATGAATTTTGCAATTCGAGTAAACAAATTTTCCTAATCTTTCTGTTCAAGCGCCATCTAC”, the binding signal is 1.13 RPM ratio (pull-down/input).

Consider “GATGATTGTTCTCCCAGCTGATGAATTTGACACCTCGAGTAAACAAATTTTCCTAATCTTTCTGTTCAAGCGCCATCTAC”, for which the binding signal is 0.871 RPM ratio (pull-down/input).

As to “GATGATTGTTCTCCCAGCTGATGAATTAAGCAGGTCGAGTAAACAAATTTTCCTAATCTTTCTGTTCAAGCGCCATCTAC”, the binding signal is 0.832 RPM ratio (pull-down/input).

With “GATGATTGTTCTCCCAGCTGATGAATTGACGAGGTCGAGTAAACAAATTTTCCTAATCTTTCTGTTCAAGCGCCATCTAC”, the binding signal was 0.902 RPM ratio (pull-down/input).

For “GATGATTGTTCTCCCAGCTGATGAATTCTTGTATTCGAGTAAACAAATTTTCCTAATCTTTCTGTTCAAGCGCCATCTAC”, the binding signal was 1.72 RPM ratio (pull-down/input).

With “GATGATTGTTCTCCCAGCTGATGAATTAAACTAGTCGAGTAAACAAATTTTCCTAATCTTTCTGTTCAAGCGCCATCTAC”, the binding signal is 0.926 RPM ratio (pull-down/input).

For “GATGATTGTTCTCCCAGCTGATGAATTGACGACTTCGAGTAAACAAATTTTCCTAATCTTTCTGTTCAAGCGCCATCTAC”, the binding signal was 1.06 RPM ratio (pull-down/input).

As to “GATGATTGTTCTCCCAGCTGATGAATTAAGAGTCTCGAGTAAACAAATTTTCCTAATCTTTCTGTTCAAGCGCCATCTAC”, the binding signal was 0.792 RPM ratio (pull-down/input).

Regarding “GATGATTGTTCTCCCAGCTGATGAATTATATATATCGAGTAAACAAATTTTCCTAATCTTTCTGTTCAAGCGCCATCTAC”, the binding signal is 1.16 RPM ratio (pull-down/input).

As to “GATGATTGTTCTCCCAGCTGATGAATTGCGTGAATCGAGTAAACAAATTTTCCTAATCTTTCTGTTCAAGCGCCATCTAC”, the binding signal is 1.15 RPM ratio (pull-down/input).

In the case of “GATGATTGTTCTCCCAGCTGATGAATTAGTCTCCTCGAGTAAACAAATTTTCCTAATCTTTCTGTTCAAGCGCCATCTAC”, the binding signal is 0.847 RPM ratio (pull-down/input).

In the case of “GATGATTGTTCTCCCAGCTGATGAATTAGAGAAATCGAGTAAACAAATTTTCCTAATCTTTCTGTTCAAGCGCCATCTAC”, the binding signal is 1.09 RPM ratio (pull-down/input).

Turning to “GATGATTGTTCTCCCAGCTGATGAATTACACACATCGAGTAAACAAATTTTCCTAATCTTTCTGTTCAAGCGCCATCTAC”, the binding signal is 1.48 RPM ratio (pull-down/input).

As for “GATGATTGTTCTCCCAGCTGATGAATTATATCGATCGAGTAAACAAATTTTCCTAATCTTTCTGTTCAAGCGCCATCTAC”, the binding signal was 0.956 RPM ratio (pull-down/input).

In the case of “GATGATTGTTCTCCCAGCTGATGAATTCACCGACTCGAGTAAACAAATTTTCCTAATCTTTCTGTTCAAGCGCCATCTAC”, the binding signal is 0.825 RPM ratio (pull-down/input).

Consider “GATGATTGTTCTCCCAGCTGATGAATTGCGGTGGTCGAGTAAACAAATTTTCCTAATCTTTCTGTTCAAGCGCCATCTAC”, for which the binding signal was 0.882 RPM ratio (pull-down/input).

In the case of “GATGATTGTTCTCCCAGCTGATGAATTCGCCGCGTCGAGTAAACAAATTTTCCTAATCTTTCTGTTCAAGCGCCATCTAC”, the binding signal is 0.875 RPM ratio (pull-down/input).

As for “GATGATTGTTCTCCCAGCTGATGAATTACAGTAGTCGAGTAAACAAATTTTCCTAATCTTTCTGTTCAAGCGCCATCTAC”, the binding signal was 1.09 RPM ratio (pull-down/input).

On to “GATGATTGTTCTCCCAGCTGATGAATTTCCTACCTCGAGTAAACAAATTTTCCTAATCTTTCTGTTCAAGCGCCATCTAC”, for which the binding signal is 0.823 RPM ratio (pull-down/input).

Values taken from article PMC12820563, “FoxP3 forms a head-to-head dimer in vivo and stabilizes its multimerization on adjacent microsatellites”.
